# Structures can show the parent of a compound that is named as a salt. The list shows a part of the results. No stated cut-off is given here; in the data, active = 0.5 or less and inactive = the rest. Repeats are few or missing, and single values can be far off.
# Test system: HeLa VPS33A R498W KI + HA-SDC1-FLAG
# Experiment: relative GAG core protein HA-SDC1 amount per cell number vs DMSO (fraction of DMSO); HeLa model of a glycosaminoglycan (GAG) storage disease; KI is knock-in and KO knock-out; SDC1 is syndecan 1; higher = more SDC1 (GAG core protein)
# Details: 50 µM; 24 h
# 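Further: HA-SDC1 level read out by In-Cell Western staining with an anti-HA antibody against the N-terminal tag, screening FDA-approved library drugs.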
row,Compound,relative GAG core protein HA-SDC1 amount per cell number
1,CCOC(=O)c1ncn2c1CN(C)C(=O)c1cc(F)ccc1-2 [Flumazenil],inactive: 1.11
2,OC[C@@]1(O)OC[C@@H](O)[C@@H](O)[C@@H]1O [Fructose],inactive: 1.01
3,CC(C(=O)O)c1ccc(C(=O)c2cccs2)cc1 (centres undefined) [Suprofen],inactive: 0.862
4,CCC/C=C1\OC(=O)C2=C1CCC=C2 [Z-Ligustilide],active: 0.497
5,C[C@H](NCc1ccc(OCc2cccc(F)c2)cc1)C(N)=O [Safinamide Mesylate],inactive: 1.02
6,Nc1ncnc2c1ncn2[C@@H]1O[C@H](COP(=O)(O)OP(=O)(O)OP(=O)(O)O)[C@@H](O)[C@H]1O [Adenosine 5-triphosphate],inactive: 0.99
7,O=C(O)c1cc(O)c2c(c1)[C@@H]([C@H]1c3cc(C(=O)O)cc(O)c3C(=O)c3c(O[C@@H]4O[C@H](CO)[C@@H](O)[C@H](O)[C@H]4O)cccc31)c1cccc(O[C@@H]3O[C@H](CO)[C@@H](O)[C@H](O)[C@H]3O)c1C2=O [Sennoside B],inactive: 1.08
8,N=C(N)NCCCC[C@@H]1NC(=O)CCSSC[C@@H](C(N)=O)NC(=O)[C@@H]2CCCN2C(=O)[C@H](Cc2c[nH]c3ccccc23)NC(=O)[C@H](CC(=O)O)NC(=O)CNC1=O [Eptifibatide],inactive: 0.847
9,C[N+]1(C)CCC(OC(=O)C(O)(c2ccccc2)C2CCCC2)C1 (centres undefined) [Glycopyrrolate],inactive: 1.43
10,O=c1[nH]cc(F)c(=O)[nH]1 [Fluorouracil (Adrucil)],inactive: 0.906
11,CCOc1nc2cccc(C(=O)O)c2n1Cc1ccc(-c2ccccc2-c2noc(=O)[nH]2)cc1 [Azilsartan],inactive: 0.913
12,Cc1c(NC(=O)c2cccnc2)c(=O)n(-c2ccccc2)n1C [Nifenazone],inactive: 1.13
13,NCCCS(=O)(=O)O [Tramiprosate],inactive: 1.14
14,CC(C)[C@H](O)C(=O)N[C@@H](C)C(=O)N[C@@H]1C(=O)N(C)CCc2ccccc21,inactive: 0.693
15,Cc1c(F)cc(C(=O)NC2CC2)cc1-c1ccc(C(=O)NCC(C)(C)C)cn1 [Losmapimod],inactive: 0.848
16,O=C1NC(=O)[C@@H](c2cn3c4c(cccc24)CCC3)[C@@H]1c1c[nH]c2ccccc12 [Tivantinib (ARQ 197)],active: 0.335
17,CS(=O)(=O)c1ccc(C(=O)Nc2ccc(Cl)c(-c3ccccn3)c2)c(Cl)c1 [GDC-0449 (Vismodegib)],inactive: 1.16
18,CC#CC(=O)N1CCC[C@H]1c1nc(-c2ccc(C(=O)Nc3ccccn3)cc2)c2c(N)nccn12,inactive: 0.819
19,CC#C[C@]1(O)CC[C@H]2[C@@H]3CCC4=CC(=O)CCC4=C3[C@@H](c3ccc(N(C)C)cc3)C[C@@]21C [Mifepristone],active: 0.178
20,Nc1nc2c(ncn2[C@H]2C[C@H](O)[C@@H](CO)O2)c(=O)[nH]1 [2'-Deoxyguanosine],inactive: 0.757
21,Oc1cccc(O)c1 [Resorcinol],inactive: 0.899
22,C/C=C1\[C@H]2C=C(C)C[C@]1(N)c1ccc(=O)[nH]c1C2 [(-)-Huperzine A],inactive: 1.1
23,COc1c(C)c2c(c(O)c1C/C=C(\C)CCC(=O)OCCN1CCOCC1)C(=O)OC2 [Mycophenolate Mofetil],inactive: 1.16
24,COc1cc2c(cc1OC)[C@@H]1Cc3ccc(OC)c(OC)c3CN1CC2 [Rotundine],inactive: 0.743
25,Cc1ccc(-n2nc(C(C)(C)C)cc2NC(=O)NCc2cc(F)ccc2Oc2ccc3c(cnn3CCO)c2)cc1 [Pexmetinib (ARRY-614)],inactive: 0.599
26,NC(=O)c1cccnc1 [Nicotinamide],inactive: 0.896
27,CC(C)c1nc(CN(C)C(=O)N[C@@H](CCN2CCOCC2)C(=O)N[C@H](CC[C@H](Cc2ccccc2)NC(=O)OCc2cncs2)Cc2ccccc2)cs1 [Cobicistat (GS-9350)],inactive: 0.509
28,CC(C)(O)CNc1nc(Nc2ccnc(C(F)(F)F)c2)nc(-c2cccc(C(F)(F)F)n2)n1 [AG-221 (Enasidenib)],inactive: 0.88
29,C[C@H](CCC(=O)NCCS(=O)(=O)O)[C@H]1CC[C@H]2[C@@H]3[C@@H](O)C[C@@H]4C[C@H](O)CC[C@]4(C)[C@H]3CC[C@]12C [Sodium Tauroursodeoxycholate (TUDC)],inactive: 1.04

# — the supplement of paper PMC12355420
